Source: the RNAGym collection of RNA variant scans (doi:10.1101/gad.245936.114)
Variants at the floor of the assay are shown more often than the library holds them.

B1: tRNA (parent)
chain: CUCUCGGUAGCCAAGUUGGUUUAAGGCGCAAGACUUUAAUUUAUCACUACGAAAUCUUGAGAUCGGGCGUUCGACUCGCCCCCGGGAGAUUUUUUCCUCGAGCAA

Variants of: B1
Assay: nonsense suppression (GFP-seq) (ratio to wild type); higher = more function; SUP4oc tRNA, yeast GFP reporter sort-seq
How it was run: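 Sorted GFP/RFP bins of yeast were each Illumina-sequenced with a phred ≥30 cutoff; the cells held a genome-integrated ochre-suppressor tRNA variant from a library with ~3% random mutations, a galactose-driven GFP ochre reporter, and RFP. Culture was in raffinose/galactose medium containing 80 mg/L adenine. Nonsense suppression, termed GFPSEQ, is the median GFP/RFP of the bins weighted by each variant's estimated cell share per bin, relative to the unmutated parent tRNA, for variants reaching ≥100 reads and ≥30 cells.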

Nonsense suppression, 1.06:
A31G C75A

Nonsense suppression, 0.77:
A31G C79U

Nonsense suppression, 0.849:
C29U U63C G85A

Nonsense suppression, 1.2:
A30G A54U

Nonsense suppression, ≤ 0.026:
A30C G32C G67U C72A
C29G U35C
C29G
A30U U55G A62C A74C C75A
C29A U55G C79U
A31G U71G C83U
A31C U55C C82U
A30G C77A C80G
A31U A62G U70C
A30U G66C C82G
A30C U35G G69A C81G C82U
A30U G66C
C29G G69C G88U
A31G A62C G86C
C29G A30C C34A
A30C C80G
A31U C56G C72U
C29U G88U
A30G G61C C64A
A30G C56A G67U
A30C C81G
C29U C56A G67A
A30G A31U G73U
A30G A54U A62C
A31G A33U G86A
A31G C82A
A30U A62C G65A U76G C82A A89G
A31G G61A A62U U76A
C29U C68G U76C
A31U G67A G78C
A30U U63G
C29G A33G G88C
C29G C34G
A30G G65C
A30U A33U U76G
C29G A62G C79U
A30U U76C C79U
A30U G69U G88C
A30C C77A
A30U U35G U57G
A30C G88A
A30G C79A
A30C U57G A60C
A30C U76G
A30U G61C G88A
C29G C68G U70C C77A
C29U U70C G78C
A30G G59A
A31U G59A A60G
C29G U35A C72G
C29U G59U G65C G84C
C29U A33G C79G
A30G A31G C81U
A31G C56G
A30C A74U
C29G G78C
C29G C75G
A30G U35C U55G G67C G85A
A30C U57C U71A G78U
C29G G32U G84A
A30U G65C C72A C81U
C29G A30C A62C G67U
A30G G67U C72U
C29U C68G
C29U A31G G66A G73A
A31C C81A
C29G G73C G78A
A30C A54C
A30C A54U
C29U U55G G84C
C29G A33G A54C G69C U71A U76C
A30G G84C G88U
A30G U35G U57C
A30U C56A
A30U C56G
C29U A31C G78C C81A
C29G U63C U71G
A30U U57G U71G
A30U C34A A87U
C29G G65C G88A
A31U C56U U70C G88U
A31C C56G
A31C C64U
A30C C56G C83G G86U
C29U G32A G85U A89G
C29U A31U A60G C68U U70G
A30U C56G G61A G67C
A31C G32A U57C C79A
A31U G61C C77A
A31G G67C
A30U A62G C81G
C29U A31G G32U A33G
C29U G67C
C29U G67A
A30G U57C U63G G85A
A30C U70C
A30C U70A
C29A U57A G73A
C29G C64A C72U G88C
C29U G67C C68U C80G G86A
A31G G85C
C29G A30G
A30U G78A
A30U G65U
C29U U55A
A31C U55A A60C A74U
C29U U35C G88U A89G
A31G C34G A54C U57C U63C G65A U70C
A30U G61C A62U
A31G G66C C79A
A31C U70C C80U G86U G88U
C29G G65C
A30C G67A
A30G G32A A54C U70C G85U
C29G G86A
A30C U55G
A31U A54G
A31U G59U C75G
C29G C34U U57A U63A C83A A87C
A30C G32C G84C
A31G G32C U57C
A31G U55C
A30C A60U U71C
C29G C81A
C29G C81U
C29G A54G G67A
A31U C68A G86A
A31C A54C
A30U A54C U70G G88A
C29U A62C
A31G A33G C56U
A30G U55G U63G C64A
A31C C79G
A31U G32C
A30U A60C
A30U G88U
C29G A89U
C29G A60G
A31G A60G U76A C80A
A30U G78U A89C
C29A U71C G84C
C29G G73U
A31G U63C C64U
C29G U58G G84U
C29U G65C G84A
A30U C34U
A31G U71A G73A C77U
A30G C56A

Nonsense suppression, 0.762:
A31G A87G

Nonsense suppression, 0.035:
A30U A31U

Nonsense suppression, 0.0409:
A30G C72G

Nonsense suppression, 0.114:
C29U A60G

Nonsense suppression, 1.14:
C29U G65A C81U

Nonsense suppression, 0.0741:
A31G U63G

Nonsense suppression, 0.144:
A30U C79U

Nonsense suppression, 0.25:
A31G C82U

Nonsense suppression, 0.0292:
A31G U35A

Nonsense suppression, 0.423:
A30U G84U

Nonsense suppression, 0.0288:
C29U G84A

Nonsense suppression, 1.1:
C29U A30G

Nonsense suppression, 1.07:
C29U

Nonsense suppression, 0.272:
C29U C68U

Nonsense suppression, 1.18:
C29U A60U
